Laboratory results: PubChem BioAssay AID1476 (National Center for Advancing Translational Sciences (NCATS), 2009)
Values joined by “and” are separate entries in the source; they are usually repeats but may differ in a detail not shown here. Identical values can stand only once. In all, about 200,000 compounds went through this assay and about 4,500 (2.2%) were called active. The inconclusive results got no clear call from the source; some entries with a clear call stand among them for comparison. Calls follow the shape of the dose curve; as a rule, active = well fitted inhibition curve with a large enough effect; inconclusive = small, poorly fitted or top-dose-only effect, or effect the other way; inactive = flat fitted curve, though single readings scatter. Potencies of inconclusive entries are doubtful fits and often do not repeat.

Each molecule was assayed against Cruzipain (Trypanosoma cruzi) (UniProt P25779) (assay: qHTS Assay for Promiscuous and Specific Inhibitors of Cruzain (without detergent)). Details: purified cruzain, Z-FR-AMC fluorescence, no detergent.
Procedure, shortened: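 Purified cruzain at 1.5 nM, pre-incubated 15 min with compound at room temperature in 100 mM sodium acetate pH 5.5, 5 mM DTT, 0.00005% Triton X-100. Reaction started with 2 uM Z-FR-AMC; AMC fluorescence increase over 60 s gives rate.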
Also: nearly all actives have a fitted effect of over 40% in size.
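For max response, negative = inhibition in this document: plate controls were enzyme without inhibitor for no effect and buffer without enzyme for full effect.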
Potency is read from the fitted curve at half-maximal effect; tags tell the direction and shape of the fitted curve.

Chain of UniProt P25779 (P25779 whole entry, looked up): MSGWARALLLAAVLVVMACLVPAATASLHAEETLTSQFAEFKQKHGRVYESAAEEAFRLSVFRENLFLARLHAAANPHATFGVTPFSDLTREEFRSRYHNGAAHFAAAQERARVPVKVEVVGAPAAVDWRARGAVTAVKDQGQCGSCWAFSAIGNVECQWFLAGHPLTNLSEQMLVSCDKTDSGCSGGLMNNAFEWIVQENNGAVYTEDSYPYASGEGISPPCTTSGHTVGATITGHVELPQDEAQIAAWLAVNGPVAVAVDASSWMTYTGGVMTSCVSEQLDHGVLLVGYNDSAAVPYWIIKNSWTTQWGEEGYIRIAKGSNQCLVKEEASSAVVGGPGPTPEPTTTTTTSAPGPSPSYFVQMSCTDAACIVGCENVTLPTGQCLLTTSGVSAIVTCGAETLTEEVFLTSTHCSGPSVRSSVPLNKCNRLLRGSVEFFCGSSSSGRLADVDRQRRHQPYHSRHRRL

Structure (SMILES) | max response, negative = inhibition | Potency
Cc1ccc(CNC(=O)Cc2coc3cc(C)cc(C)c23)cc1 | inactive: -25% | –
C=C(C)C1CC=C(C)C(OC(C)=O)C1 (stereo unspecified) | inactive: 4.76% | –
c1cc(CSSCc2ccncc2)ccn1 | – | inconclusive: 3.98 µM [inhibitor, partial curve]
CCC(=O)Nc1nonc1-c1nc2ccccc2n1Cc1cccc2ccccc12 | – | inconclusive: 31.6 µM [inhibitor, partial curve, poor fit]
Cn1cccc1CNC(=O)Nc1ccc(Cl)c(Cl)c1 | – | inconclusive: 39.8 µM [inhibitor, single point]
COc1cc2c(cc1NC(=O)/C=C/c1ccccc1)oc1ccccc12 | – | inconclusive: 39.8 µM [inhibitor, single point]
O=C(C(Cc1ccccc1)N1C(=O)C2C3C=CC(C3)C2C1=O)N1CCCCCC1 (stereo unspecified) | inactive: 15.9% | –
N#Cc1c(-c2ccccc2)cc(C2CC2)nc1SCC(=O)c1cccs1 | – | inconclusive: 39.8 µM [inhibitor, single point]
CC(=O)[C@H]1CC[C@H]2[C@@H]3C[C@H](C)C4=CC(=O)CC[C@]4(C)[C@H]3[C@@H](O)C[C@]12C | – | inconclusive: 31.6 µM [activator, single point]
CCN(C(=O)COC(=O)c1cc(-c2ccc3cc(OC)ccc3c2)nc2ccccc12)C1CCS(=O)(=O)C1 (stereo unspecified) | – | inconclusive: 3.16 µM [activator, full curve]
CN(C)c1ccc(CNC(=O)c2cc3cc(S(=O)(=O)N4CCCCC4)ccc3n2C)cc1 | – | inconclusive: 31.6 µM [inhibitor, single point]
COc1ccc(-c2noc(CSc3nc(N)c(-c4ccccc4)c(=O)[nH]3)n2)cc1OC | – | inconclusive: 20 µM [activator, single point]
CCOc1ccccc1NC(=O)Cn1ccn(-c2ccccc2)c(=O)c1=O | – | inconclusive: 31.6 µM [activator, single point]
COc1ccccc1N1CCN(c2csc3ccc(Cl)cc3c2=O)CC1 | inactive: -5.2% | –
N#Cc1c(NC(=O)Cn2cnc3ccccc3c2=O)oc(-c2ccccc2)c1-c1ccccc1 | – | active: 25.1 µM
Cc1cccc(N(C(=O)c2sc(C)nc2C)C(C(=O)NCc2ccco2)c2ccccc2)c1 (stereo unspecified) | – | inconclusive: 39.8 µM [activator, single point]
Cc1c(N=Cc2c(O)n(Cc3ccco3)c(=O)c3ccccc23)c(=O)n(-c2ccccc2)n1C | – | inconclusive: 39.8 µM [activator, single point] and inconclusive: 31.6 µM [activator, single point]
Cc1ccc(C(C)C)c(OCCCN2C(=O)NC(C)(C)C2=O)c1 | – | inconclusive: 31.6 µM [activator, single point]
COc1cc(OC)c(NC(=O)c2cc(CN3CCOCC3)on2)cc1Cl | inactive: 8.37% | –
COC(=O)C1=C(C)N(Cc2ccco2)C(=O)C1 | – | inconclusive: 31.6 µM [activator, single point]
COc1ccc(S(=O)(=O)N2CCN(c3ccccc3OC)CC2)cc1-c1noc(C)n1 | inactive: 1.7% | –

Structure (SMILES) | max response, negative = inhibition | Potency
O=C(CSc1nnc2c(n1)[nH]c1ccc(F)cc12)OCc1ccccc1 | – | active: 12.6 µM
Cc1oc(C)c2c(=O)cc(-c3ccc4c(c3)OCO4)cc(OC(=O)c3ccccc3Br)c12 | – | active: 15.8 µM
COc1cc2c(C(=O)NCc3ccc4c(c3)OCO4)cn(CC(C)C)c(=O)c2cc1OC | – | inconclusive: 39.8 µM [activator, single point]
Cc1c(C(=O)NCC2COc3ccccc3O2)oc2ccc(S(=O)(=O)N3CC(C)CC(C)C3)cc12 (stereo unspecified) | – | active: 20 µM
O=C(COC(=O)c1ccc(S(=O)(=O)NCc2ccco2)cc1)NC1CCCCC1 | – | inconclusive: 39.8 µM [inhibitor, single point]
COC(=O)c1ccc(CC(=O)c2nc3ccccc3s2)cc1 | – | active: 31.6 µM
CCOc1ccc(CNC(=O)c2ccc(-c3nc(CS(=O)(=O)c4ccccc4)c(C)o3)cc2)cc1 | – | inconclusive: 31.6 µM [inhibitor, single point]
O=[N+]([O-])c1cccc(Cl)c1Cl | inactive: 5.78% | –
Cc1ccc(NC(=O)C(NS(=O)(=O)c2ccc3c(c2)CCC(=O)N3)c2ccccc2)cc1C (stereo unspecified) | inactive: -5.26% | –
Cc1[nH]n(-c2ccc(F)cc2)c(=O)c1/C=N/c1sc2c(c1C#N)CCCC2 | – | inconclusive: 39.8 µM [inhibitor, single point]
Cc1sc2ncnc(N3CCOCC3)c2c1C | inactive: -2.9% | –
CCCCOC(=O)c1ccc(NC(=O)c2cc3c(=O)n4cccc(C)c4nc3n2C)cc1 | inactive: 0.714% | –
COc1ccccc1N1CC(C(=O)OC(C)C(=O)N2CCCc3ccccc32)CC1=O (stereo unspecified) | – | inconclusive: 31.6 µM [activator, single point]
O=C(Nc1ccc(F)cc1F)c1cc(-c2ccccc2O)no1 | – | inconclusive: 39.8 µM [activator, single point]
O=C1CCCC2=C1C(c1ccc(Br)cc1)c1c([nH]c(=S)[nH]c1=O)N2 (stereo unspecified) | – | active: 15.8 µM
COc1cc(NC(=O)Cn2nc(C(F)(F)F)c3c2CCCC3)c(OC)cc1Cl | – | inconclusive: 39.8 µM [inhibitor, single point]
COC(=O)c1c(NC(=O)c2nn(C)cc2Cl)sc2c1CCCC2 | – | inconclusive: 39.8 µM [activator, single point]
Cc1cc(C(=O)N/N=C/c2cc(Br)cc([N+](=O)[O-])c2O)c2ccccc2n1 | – | inconclusive: 39.8 µM [activator, single point]
CO[C@@H]1/C=C\O[C@]2(C)Oc3c(C)c(O)c4c(O)c(c(CN5CCN(C)CC5)c(O)c4c3C2=O)NC(=O)/C(C)=C\C=C[C@@H](C)[C@@H](O)[C@H](C)[C@@H](O)C(C)[C@H](OC(C)=O)[C@@H]1C (stereo partly specified) | – | inconclusive: 3.16 µM [activator, partial curve]
COc1cccc(NC(=O)C(=O)N/N=C/c2cc(C)n(-c3ccc(Cl)c(Cl)c3)c2C)c1 | – | active: 15.8 µM
